{
  "source": "paper PMC4336329",
  "about": "(PLoS ONE, 2015)",
  "note": "In all, about 310,000 compounds went through this assay and about 14,000 (4.5%) showed an effect of 50% or more. Effects have a minus sign here. Some of the results follow.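 Also: peak tail current of the secondary pulse compared with the same well before compound.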",
  "data": [
    {"target": "human ether-à-go-go-related gene (hERG) potassium channel (human, UniProt Q12809)", "sequence (Q12809 whole entry, looked up)": "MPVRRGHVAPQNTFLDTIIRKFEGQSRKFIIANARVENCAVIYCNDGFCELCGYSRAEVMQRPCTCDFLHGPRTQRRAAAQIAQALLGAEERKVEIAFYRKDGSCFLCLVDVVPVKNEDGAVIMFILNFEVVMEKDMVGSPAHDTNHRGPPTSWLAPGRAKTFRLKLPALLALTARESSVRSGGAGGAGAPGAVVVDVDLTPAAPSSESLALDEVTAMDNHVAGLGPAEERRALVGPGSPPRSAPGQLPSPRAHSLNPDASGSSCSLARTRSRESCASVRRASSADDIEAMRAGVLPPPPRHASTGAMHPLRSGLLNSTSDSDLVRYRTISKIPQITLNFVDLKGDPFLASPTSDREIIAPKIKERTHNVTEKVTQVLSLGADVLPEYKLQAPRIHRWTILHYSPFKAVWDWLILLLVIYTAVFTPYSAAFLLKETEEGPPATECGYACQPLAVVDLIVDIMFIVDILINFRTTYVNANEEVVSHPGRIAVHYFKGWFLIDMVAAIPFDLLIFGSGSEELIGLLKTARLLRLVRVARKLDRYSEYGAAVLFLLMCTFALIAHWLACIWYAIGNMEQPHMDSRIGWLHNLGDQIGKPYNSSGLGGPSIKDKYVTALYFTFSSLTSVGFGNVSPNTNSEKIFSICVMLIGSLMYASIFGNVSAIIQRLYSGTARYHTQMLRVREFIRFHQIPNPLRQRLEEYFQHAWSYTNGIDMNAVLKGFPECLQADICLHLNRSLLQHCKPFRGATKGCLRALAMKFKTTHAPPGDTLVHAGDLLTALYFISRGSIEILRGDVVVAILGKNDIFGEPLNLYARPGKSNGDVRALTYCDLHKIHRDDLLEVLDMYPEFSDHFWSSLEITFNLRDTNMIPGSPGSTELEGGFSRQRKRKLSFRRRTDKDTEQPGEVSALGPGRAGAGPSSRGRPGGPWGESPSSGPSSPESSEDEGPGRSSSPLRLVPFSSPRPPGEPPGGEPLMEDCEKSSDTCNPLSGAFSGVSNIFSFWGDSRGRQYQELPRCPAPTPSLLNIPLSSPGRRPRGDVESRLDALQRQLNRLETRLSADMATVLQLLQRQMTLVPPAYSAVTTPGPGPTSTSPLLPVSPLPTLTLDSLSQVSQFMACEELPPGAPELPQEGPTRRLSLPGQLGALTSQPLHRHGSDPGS", "test": "primary screen, population patch clamp on CHO cells stably expressing hERG", "units": {"hERG current change (%, negative = inhibition) at 10uM": "%"}, "values": [
      {"compound": "COC(=O)C1=C(c2ccccc2)C[C@@H]2CC[C@H]1N2C(=O)N1CCC(C)CC1", "hERG current change (%, negative = inhibition) at 10uM": -7.73},
      {"compound": "CC(C)NC(=O)CN1CCC(O)(c2ccccc2)CC1", "hERG current change (%, negative = inhibition) at 10uM": -1.07},
      {"compound": "CCOC(=O)C1CCN(C(=O)c2ccc(N3CCOCC3)c([N+](=O)[O-])c2)CC1", "hERG current change (%, negative = inhibition) at 10uM": -41.8},
      {"compound": "CCN1N=C(c2ccccc2)CCC1=O", "hERG current change (%, negative = inhibition) at 10uM": 16.8},
      {"compound": "O=C(c1ccc(COc2ccc(Br)cc2)o1)N1N=C(C(F)F)CC1(O)C(F)F", "note": "(stereo not shown)", "hERG current change (%, negative = inhibition) at 10uM": 2.57},
      {"compound": "Cc1nc(-c2cc(C#N)c(Sc3cccc(C(F)(F)F)c3)nc2C)cs1", "hERG current change (%, negative = inhibition) at 10uM": 14.7},
      {"compound": "Cc1ccc(C(C)(C)NC(=O)C2CCC(=O)N(CC3CCCCC3)C2)cc1", "note": "(stereo not shown)", "hERG current change (%, negative = inhibition) at 10uM": 3.82},
      {"compound": "CCOc1cc(S(=O)(=O)N(CC)CC)ccc1F", "hERG current change (%, negative = inhibition) at 10uM": -1.31},
      {"compound": "Cc1ccc(C(=O)NNC(=S)Nc2cccc3ccccc23)s1", "hERG current change (%, negative = inhibition) at 10uM": 19},
      {"compound": "COCC(=O)N1CCC(Oc2ccc(C(=O)N(C)CCCC3CCCC3)cc2)CC1", "hERG current change (%, negative = inhibition) at 10uM": -26.9},
      {"compound": "COc1cc(Br)c(CC(=O)O)cc1OC", "hERG current change (%, negative = inhibition) at 10uM": -2.3},
      {"compound": "O=C(CSc1nnc(-c2cccs2)n1Cc1ccccc1)N1CCc2ccccc2C1", "hERG current change (%, negative = inhibition) at 10uM": -32.4},
      {"compound": "Cc1cc(-c2csc(N)n2)c(C)n1CCC(C)C.Cl", "hERG current change (%, negative = inhibition) at 10uM": 4.32},
      {"compound": "Cc1cc(C(=O)Nc2ccc(OCc3ccccc3)cc2)c(C)o1", "hERG current change (%, negative = inhibition) at 10uM": 13.6},
      {"compound": "CCOC(=O)c1ccc(NC(=O)CC2Sc3ncnn3C2=O)cc1", "note": "(stereo not shown)", "hERG current change (%, negative = inhibition) at 10uM": 22.4},
      {"compound": "COc1ccccc1N(CC(=O)NC1CCCCC1)S(C)(=O)=O", "hERG current change (%, negative = inhibition) at 10uM": 18.9},
      {"compound": "COc1ccc(CNC(=O)CN(C2CCCCC2)S(C)(=O)=O)cc1", "hERG current change (%, negative = inhibition) at 10uM": -13.8},
      {"compound": "O=C(CSc1ccccc1)Nc1cccnc1", "hERG current change (%, negative = inhibition) at 10uM": 23},
      {"compound": "CCN(CC(=O)NCc1cccs1)S(=O)(=O)c1cccc(Br)c1", "hERG current change (%, negative = inhibition) at 10uM": 11.9},
      {"compound": "COc1cc(NC(=O)c2ccc(NC3=NC4CS(=O)(=O)CC4S3)cc2)cc(OC)c1OC", "note": "(stereo not shown)", "hERG current change (%, negative = inhibition) at 10uM": -11.2},
      {"compound": "Cc1ccc(NC(=O)c2ccc([N+](=O)[O-])o2)cc1C", "hERG current change (%, negative = inhibition) at 10uM": 6.74},
      {"compound": "O=C1CCC(C(=O)O)(c2ccccc2)C1", "note": "(stereo not shown)", "hERG current change (%, negative = inhibition) at 10uM": 8.52},
      {"compound": "COC(=O)c1cc(Br)c(=O)n(CC(C)C)c1", "hERG current change (%, negative = inhibition) at 10uM": 10.1},
      {"compound": "CCN(CC)C(=O)N1CCN(C(=O)N2CCOCC2)CC1", "hERG current change (%, negative = inhibition) at 10uM": 29.8},
      {"compound": "Cc1ccc(SCc2nc3ccccc3n2CC(=O)Nc2c(C)cccc2C)cc1", "hERG current change (%, negative = inhibition) at 10uM": 3.07},
      {"compound": "S=C(NCc1ccc2c(c1)OCO2)NCc1ccc2c(c1)OCO2", "hERG current change (%, negative = inhibition) at 10uM": -9.62},
      {"compound": "CC(C)(C)NC(=O)C(c1ccc(F)cc1)N(Cc1ccco1)C(=O)CCC(=O)Nc1nccs1", "note": "(stereo not shown)", "hERG current change (%, negative = inhibition) at 10uM": 10.6},
      {"compound": "COc1ccccc1N(C)S(=O)(=O)c1ccc(C(=O)NCc2ccc3c(c2)OCO3)cc1", "hERG current change (%, negative = inhibition) at 10uM": 4.2},
      {"compound": "Cc1cc(/C=N/Nc2ncnc(N)c2[N+](=O)[O-])c(C)n1-c1ccccc1", "hERG current change (%, negative = inhibition) at 10uM": -9.15},
      {"compound": "CN1CCN(Cc2nc(-c3cccs3)no2)CC1c1ccccc1", "note": "(stereo not shown)", "hERG current change (%, negative = inhibition) at 10uM": -8.45},
      {"compound": "CN=C(Nc1ccc(C(=O)OC)cc1)SC1CC(=O)N(c2ccccc2F)C1=O", "note": "(stereo not shown)", "hERG current change (%, negative = inhibition) at 10uM": 10.2},
      {"compound": "O=C(Cc1ccccc1F)Nc1cc(S(=O)(=O)N2CCCC2)ccc1Cl", "hERG current change (%, negative = inhibition) at 10uM": 14},
      {"compound": "CC(OC(=O)c1ccccc1CCc1ccccc1)C(N)=O", "note": "(stereo not shown)", "hERG current change (%, negative = inhibition) at 10uM": 5.05},
      {"compound": "O=C(O)c1cccc(S(=O)(=O)N2CCCC2)c1", "hERG current change (%, negative = inhibition) at 10uM": -14.3},
      {"compound": "O=C(Cn1nc(-c2ccc(F)cc2)ccc1=O)Nc1ccc2c(c1)OCCO2", "hERG current change (%, negative = inhibition) at 10uM": -0.525},
      {"compound": "O=C(CN1CCCc2ccccc21)NCc1ccccc1Cl", "hERG current change (%, negative = inhibition) at 10uM": 11.1},
      {"compound": "c1ccc(Oc2cccc(Oc3ccccc3)n2)cc1", "hERG current change (%, negative = inhibition) at 10uM": 14.1},
      {"compound": "CC(=O)Oc1ccc(C)cc1-n1nc2ccccc2n1", "hERG current change (%, negative = inhibition) at 10uM": -9.28},
      {"compound": "COC(=O)c1ccccc1S(=O)(=O)N1CCC(C(=O)NC2CCCCC2)CC1", "hERG current change (%, negative = inhibition) at 10uM": -3.67},
      {"compound": "Cn1c(Cc2csc(N)n2)nnc1SCC(=O)NCc1ccccc1", "hERG current change (%, negative = inhibition) at 10uM": 1.12},
      {"compound": "CN(C)c1ccc(S(=O)(=O)N2CCCCC2)cc1NC(=O)CCNC(=O)c1ccc(Cl)cc1", "hERG current change (%, negative = inhibition) at 10uM": -27.4},
      {"compound": "Cc1ccccc1N(CC(=O)Nc1ccccc1C(=O)O)S(C)(=O)=O", "hERG current change (%, negative = inhibition) at 10uM": 10.9},
      {"compound": "[O-][n+]1ccc(OCc2ccccc2)cc1", "hERG current change (%, negative = inhibition) at 10uM": -3.98},
      {"compound": "Cc1cccc(NC(=O)COC(=O)c2cc3ccccc3oc2=O)c1", "hERG current change (%, negative = inhibition) at 10uM": -13.2},
      {"compound": "COc1ccc(S(=O)(=O)n2nc(-c3ccc(Cl)cc3)cc2N)cc1", "hERG current change (%, negative = inhibition) at 10uM": 11.7},
      {"compound": "O=C(NCCCN1CCCC1)c1ccc2c(c1)N(Cc1ccccc1F)C(=O)c1ccccc1S2(=O)=O", "hERG current change (%, negative = inhibition) at 10uM": 3.48},
      {"compound": "CCN(CC)S(=O)(=O)c1ccc(N2CCOCC2)c(NC(=O)c2ccc3ccccc3c2)c1", "hERG current change (%, negative = inhibition) at 10uM": 13.6},
      {"compound": "Cc1[nH]c2ccccc2c1C(=O)C(=O)Nc1ccc2c(c1)OCO2", "hERG current change (%, negative = inhibition) at 10uM": 0.276},
      {"compound": "Cc1nn(-c2ccccc2)c2sc(C(=O)OCN3C(=O)c4ccccc4C3=O)cc12", "hERG current change (%, negative = inhibition) at 10uM": 0.225},
      {"compound": "COc1ccc(C2=NNC(c3cccnc3)=Nc3ccccc32)cc1", "hERG current change (%, negative = inhibition) at 10uM": -2.94},
      {"compound": "OCCNc1ncnc2c1ncn2Cc1ccccc1", "hERG current change (%, negative = inhibition) at 10uM": -7.11},
      {"compound": "Cc1ccc(NC(=O)Cn2ncc3ccccc32)c(Cl)c1", "hERG current change (%, negative = inhibition) at 10uM": 2.7},
      {"compound": "COC(=O)C1=C(c2cccc(OC)c2OC)C[C@@H]2CC[C@H]1N2C(=O)NCCNC(C)=O", "hERG current change (%, negative = inhibition) at 10uM": 10.7},
      {"compound": "O=C(COC(=O)/C=C/c1cn(-c2ccccc2)nc1-c1cccnc1)Nc1ccc(Cl)cc1Cl", "hERG current change (%, negative = inhibition) at 10uM": -6.59},
      {"compound": "ClCCOCOCCCl", "hERG current change (%, negative = inhibition) at 10uM": 13.9},
      {"compound": "CS(=O)(=O)c1ccc(Cl)c(NC(=O)COC(=O)c2ccc(-n3cnnn3)cc2)c1", "hERG current change (%, negative = inhibition) at 10uM": -7.82},
      {"compound": "CCOc1ccc(OCc2ccc(C(=O)N(CC)CC)cc2)cc1", "hERG current change (%, negative = inhibition) at 10uM": 2.22},
      {"compound": "CCC(CC)C(=O)Nc1ccccc1NC(C)=O", "hERG current change (%, negative = inhibition) at 10uM": 2.8}
    ]}
  ]
}
